System: two-spotted spider mite having acquired resistance to organophosphorous insecticides
Test: Effects on two-spotted spider mite (spray on adult females on French bean leaves)
Details: Tetranychus urticae, in Phaseolus vulgaris, read-out: percentage mortality

Cn1nc(C(F)(F)F)c(C(O)=C(C#N)Oc2ccc(Cl)cc2)c1Cl [Compound No. 3-8, β-(5-chloro-1-methyl-3-trifluoromethylpyrazole-4-yl)-α-(4-chlorophenoxy)-β-hydroxyacrylonitrile] and Cn1nc(C(F)(F)F)c(C(OC(=O)C(C)(C)C)=C(C#N)Oc2ccc(Cl)cc2)c1Cl [Compound No. 3-9, β-(5-chloro-1-methyl-3-trifluoromethylpyrazole-4-yl)-α-(4-chlorophenoxy)-β-pivaloyloxyacrylonitrile] are the same in mortality at 125 ppm: 100% for the first, 100% for the second.

Work on Cc1cc(Cl)ccc1N=CN(C)C [chlordimeform, reference compound] yielded a mortality at 125 ppm of 13%.
